Data on 1 molecule can be found in patent US20250376539A1 (KIRA PHARMACEUTICALS SUZHOU, published 2025).

Test [1] has as its target T1, recombinant human C2a, C-terminal 6His-tag, made in house (CHO cell expression) (human, UniProt P06681 244-752).
T1 sequence: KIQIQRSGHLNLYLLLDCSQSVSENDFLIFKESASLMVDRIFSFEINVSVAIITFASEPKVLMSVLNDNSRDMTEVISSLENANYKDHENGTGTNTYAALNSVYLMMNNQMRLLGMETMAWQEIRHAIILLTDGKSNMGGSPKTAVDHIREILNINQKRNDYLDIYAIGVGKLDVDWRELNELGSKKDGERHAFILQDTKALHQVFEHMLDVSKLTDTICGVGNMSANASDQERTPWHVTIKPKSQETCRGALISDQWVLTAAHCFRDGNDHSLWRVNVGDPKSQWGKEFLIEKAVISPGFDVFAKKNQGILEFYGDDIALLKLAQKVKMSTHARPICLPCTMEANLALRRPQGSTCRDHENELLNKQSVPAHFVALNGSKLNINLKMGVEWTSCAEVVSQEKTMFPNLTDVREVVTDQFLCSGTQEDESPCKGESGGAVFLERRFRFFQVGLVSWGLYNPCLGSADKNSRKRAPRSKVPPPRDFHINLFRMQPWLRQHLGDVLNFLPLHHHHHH
As to the kind of experiment: binding kinetics (BLI presumed).

For test [2], the target named is T2, recombinant cyno C2a, C-terminal 6His-tag, made in house (CHO cell expression) (cynomolgus monkey, UniProt P06681 244-752 (human entry)).
T2 chain: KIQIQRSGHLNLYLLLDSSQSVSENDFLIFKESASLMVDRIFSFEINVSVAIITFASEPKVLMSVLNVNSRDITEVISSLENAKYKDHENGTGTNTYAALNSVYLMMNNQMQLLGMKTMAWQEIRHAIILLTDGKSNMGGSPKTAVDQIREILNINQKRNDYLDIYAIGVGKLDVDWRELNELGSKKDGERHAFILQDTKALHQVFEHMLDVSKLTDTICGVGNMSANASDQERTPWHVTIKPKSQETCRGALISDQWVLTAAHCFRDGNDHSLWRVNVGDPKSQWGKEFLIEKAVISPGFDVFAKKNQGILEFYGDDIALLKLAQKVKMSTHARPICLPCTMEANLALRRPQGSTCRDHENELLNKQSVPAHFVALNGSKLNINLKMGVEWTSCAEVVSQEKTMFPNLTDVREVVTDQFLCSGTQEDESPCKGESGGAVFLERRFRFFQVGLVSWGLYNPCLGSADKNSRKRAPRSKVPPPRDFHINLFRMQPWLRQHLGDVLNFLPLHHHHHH
As to the kind of experiment: binding kinetics (BLI presumed).

Test [3] has as its target T3, recombinant human complement C2 (NP_000054.2), C-terminal 6His-tag, made in house (CHO cell expression) (human, UniProt P06681 21-752).
T3 construct: a linker before the tag is not described; also called human C2; Human C2
T3 sequence: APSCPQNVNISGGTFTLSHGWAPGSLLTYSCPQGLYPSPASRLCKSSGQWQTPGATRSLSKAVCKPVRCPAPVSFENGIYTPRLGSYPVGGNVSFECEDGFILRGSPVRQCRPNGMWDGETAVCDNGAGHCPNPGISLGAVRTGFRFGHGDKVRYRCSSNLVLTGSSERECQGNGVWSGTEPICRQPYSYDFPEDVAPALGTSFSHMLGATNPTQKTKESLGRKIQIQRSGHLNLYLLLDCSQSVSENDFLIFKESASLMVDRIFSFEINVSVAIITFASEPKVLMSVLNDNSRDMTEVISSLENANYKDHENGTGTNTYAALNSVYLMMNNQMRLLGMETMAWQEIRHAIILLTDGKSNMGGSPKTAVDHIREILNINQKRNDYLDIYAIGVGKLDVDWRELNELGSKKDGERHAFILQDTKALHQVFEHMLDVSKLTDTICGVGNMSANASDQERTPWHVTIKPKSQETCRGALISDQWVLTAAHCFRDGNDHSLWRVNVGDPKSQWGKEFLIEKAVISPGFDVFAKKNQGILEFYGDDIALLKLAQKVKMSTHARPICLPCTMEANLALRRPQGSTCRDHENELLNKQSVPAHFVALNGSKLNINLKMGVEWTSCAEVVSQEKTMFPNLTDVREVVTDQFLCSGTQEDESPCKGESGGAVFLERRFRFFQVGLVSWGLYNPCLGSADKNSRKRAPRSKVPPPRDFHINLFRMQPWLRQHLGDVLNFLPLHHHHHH
As to the kind of experiment: BLI (Gator); ratio of dissociation at pH 5.8 to pH 7.4. The procedure:
(§1) The histidine mutant constructs in Table 4 were tested for their pH-dependent dissociation from human C2. Probe-immobilized anti-C2 antibodies were incubated with C2 at pH 7.4 for 600s, followed by a 600s dissociation period in K Buffer at pH 7.4 or pH 5.8. The data were processed and analyzed by the Gator evaluation software.
(§2) Non-fusion mAb were used for comparison.

The target of test [4] is T4, recombinant cynomolgus (cyno) complement C2 (XP_005553508.1), C-terminal 6His-tag, made in house (CHO cell … (cynomolgus monkey (Macaca fascicularis), UniProt P06681 21-752 (human entry))).
T4 construct: also called cyno C2; Cyno C2
T4 chain: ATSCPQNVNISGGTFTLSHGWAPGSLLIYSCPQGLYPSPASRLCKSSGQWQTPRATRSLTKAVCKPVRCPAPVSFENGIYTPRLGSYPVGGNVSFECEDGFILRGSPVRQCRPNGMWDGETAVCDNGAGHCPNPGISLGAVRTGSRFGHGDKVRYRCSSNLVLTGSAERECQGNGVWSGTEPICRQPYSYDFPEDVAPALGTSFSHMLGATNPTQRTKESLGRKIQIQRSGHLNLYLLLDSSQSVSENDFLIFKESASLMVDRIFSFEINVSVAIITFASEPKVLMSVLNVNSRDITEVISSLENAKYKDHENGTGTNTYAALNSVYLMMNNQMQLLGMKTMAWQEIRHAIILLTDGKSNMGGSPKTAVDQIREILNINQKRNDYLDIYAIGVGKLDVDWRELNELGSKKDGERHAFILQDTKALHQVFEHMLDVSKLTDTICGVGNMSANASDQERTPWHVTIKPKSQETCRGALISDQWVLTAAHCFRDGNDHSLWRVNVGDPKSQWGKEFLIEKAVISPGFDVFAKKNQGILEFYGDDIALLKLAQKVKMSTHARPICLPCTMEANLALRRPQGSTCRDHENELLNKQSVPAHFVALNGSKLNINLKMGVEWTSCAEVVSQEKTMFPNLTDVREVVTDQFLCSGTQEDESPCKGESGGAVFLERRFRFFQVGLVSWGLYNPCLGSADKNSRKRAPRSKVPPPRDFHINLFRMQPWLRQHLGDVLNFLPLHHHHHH
The description is as above. The procedure:
as §1, §2

B1: 69.44FH (Factor H 1-5 fusion with 69.44; FH1-5 fused to the heavy chain C-terminus) (other)
heavy: QVQLVQSGAEVKKPGASVKVSCKASGYSFTTYYMYWVRQAPGQGLEWMGIITPSGGSTTYAQKFQDRVTMTRDASTTTVYMELSSLRSEDTAVYYCARGYEGSYGFDHWGQGTLVTVSSASTKGPSVFPLAPCSRSTSESTAALGCLVKDYFPEPVTVSWNSGALTSGVHTFPAVLQSSGLYSLSSVVTVPSSSLGTKTYTCNVDHKPSNTKVDKRVESKYGPP[human IgG4 Fc with S228P M428L N434A (EU numbers) not shown]EDCNELPPRRNTEILTGSWSDQTYPEGTQAIYKCRPGYRSLGNIIMVCRKGEWVALNPLRKCQKRPCGHPGDTPFGTFTLTGGNVFEYGVKAVYTCNEGYQLLGEINYRECDTDGWTNDIPICEVVKCLPVTAPENGKIVSSAMEPDREYHFGQAVRFVCNSGYKIEGDEEMHCSDDGFWSKEKPKCVEISCKSPDVINGSPISQKIIYKENERFQYKCNMGYEYSERGDAVCTESGWRPLPSCEEKSCDNPYIPNGDYSPLRIKHRTGDEITYQCRNGFYPATRGNTAKCTSTGWIPAPRCTLKP
light: SYELTQPPSVSLSPGQTASITCSGDKLGNKYTCWYQQKPGQSPVLVIYQDNKRPSGIPERFSGSNSGNTATLTISGTQAMDEADYYCQTWDSSTAVFGGGTKLTVLGQPKAAPSVTLFPPSSEELQANKATLVCLISDFYPGAVTVAWKADSSPVKAGVETTTPSKQSNNKYAASSYLSLTPEQWKSHRSYSCQVTHEGSTVEKTVAPTECS
notes: Antibody-factor H fusion protein
On to B1, for which, in test [1], the equilibrium dissociation constant (Kd) is 0.221 nM, the koff worked out at 4.01e-05 s⁻¹ and the kon came out at 182000 M⁻¹ s⁻¹. In addition, in test [2], the Kd worked out at 0.346 nM, the koff is 7.3e-05 s⁻¹ and the kon amounted to 211000 M⁻¹ s⁻¹. In test [3], the “Fold dissociation pH 5.8/pH 7.4” value amounted to 0.54 fold. Further, the “Fold dissociation pH 5.8/pH 7.4” value in test [4] came to 4.32 fold.
